# This is one part of the list.
# B1: CrataBL (Crataeva tapia), C0HJA4 (protein)
# chain: AILTGVPYYILPSTSRAGFSPDNLRKNTSQLSCPLDLITQLRFPRRIGVPVIFTPQNSSLKVVPLSHNLNIHTCSDLWFCPESKIWTVKSSLTHGGSVVTTGGTFRSLGSWFRIERHGDSYKLVHCPRGSTPCRDVGIETVGGGGRRYLAPRDRPLAVRFTRASG
# Assays:
# Assay in all cases: glycan array binding signal (z-score within array); higher = stronger binding
# Settings in all cases: glycan notation: IUPAC condensed, linker removed
# [1] = target: Neu5Ac(a2-3)Gal6S(b1-4)[Fuc(a1-3)]GlcNAc
# Method in brief: (§1)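 Glycan array binding is given as a within-array Z-score, which can be read as non-binding when negative. The arrays, 3228 of them, came from the Consortium for Functional Glycomics database and were retained only where the protein sequence was available. Z-scores were averaged across arrays of the same protein sequence at different concentrations or buffers and across linkers.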
# [2] = target: Neu5Ac(a2-3)GalNAc
# Method in brief: as §1
# [3] = target: Neu5Ac(a2-3)GalNAc(b1-4)GlcNAc
# Method in brief: as §1
# [4] = target: Neu5Ac(a2-3)[GalNAc(b1-4)]Gal(b1-4)Glc
# Method in brief: as §1
# [5] = target: Neu5Ac(a2-3)[GalNAc(b1-4)]Gal(b1-4)GlcNAc
# Method in brief: as §1
# [6] = target: Neu5Ac(a2-3)[GalNAc(b1-4)]Gal(b1-4)GlcNAc(b1-3)GalNAc
# Method in brief: as §1
# [7] = target: Neu5Ac(a2-3)[Neu5Ac(a2-6)]GalNAc
# Method in brief: as §1
# [8] = target: Neu5Ac(a2-6)Gal
# Method in brief: as §1
# [9] = target: Neu5Ac(a2-6)Gal(b1-3)GlcNAc(b1-3)[Gal(b1-4)GlcNAc(b1-6)]Gal(b1-4)Glc
# Method in brief: as §1
# [10] = target: Neu5Ac(a2-6)Gal(b1-4)Glc
# Method in brief: as §1
# [11] = target: Neu5Ac(a2-6)Gal(b1-4)GlcNAc
# Method in brief: as §1
# [12] = target: Neu5Ac(a2-6)Gal(b1-4)GlcNAc(b1-2)Man
# Method in brief: as §1
# [13] = target: Neu5Ac(a2-6)Gal(b1-4)GlcNAc(b1-2)Man(a1-3)Man(b1-4)GlcNAc(b1-4)GlcNAc
# Method in brief: as §1
# [14] = target: Neu5Ac(a2-6)Gal(b1-4)GlcNAc(b1-2)Man(a1-3)[Gal(b1-4)GlcNAc(b1-2)Man(a1-6)]Man(b1-4)GlcNAc(b1-4)GlcNAc
# Method in brief: as §1
# [15] = target: Neu5Ac(a2-6)Gal(b1-4)GlcNAc(b1-2)Man(a1-3)[GlcNAc(b1-2)Man(a1-6)]Man(b1-4)GlcNAc(b1-4)GlcNAc
# Method in brief: as §1
# [16] = target: Neu5Ac(a2-6)Gal(b1-4)GlcNAc(b1-2)Man(a1-3)[GlcNAc(b1-4)][Neu5Ac(a2-6)Gal(b1-4)GlcNAc(b1-2)Man(a1-6)]Man(b1-4)GlcNAc(b1-4)GlcNAc
# Method in brief: as §1
# [17] = target: Neu5Ac(a2-6)Gal(b1-4)GlcNAc(b1-2)Man(a1-3)[Man(a1-6)]Man(b1-4)GlcNAc(b1-4)GlcNAc
# Method in brief: as §1
# [18] = target: Neu5Ac(a2-6)Gal(b1-4)GlcNAc(b1-2)Man(a1-3)[Neu5Ac(a2-3)Gal(b1-4)GlcNAc(b1-2)Man(a1-6)]Man(b1-4)GlcNAc(b1-4)GlcNAc
# Method in brief: as §1
# [19] = target: Neu5Ac(a2-6)Gal(b1-4)GlcNAc(b1-2)Man(a1-3)[Neu5Ac(a2-6)Gal(b1-4)GlcNAc(b1-2)Man(a1-6)]Man(b1-4)GlcNAc(b1-4)GlcNAc
# Method in brief: as §1
# [20] = target: Neu5Ac(a2-6)Gal(b1-4)GlcNAc(b1-2)Man(a1-3)[Neu5Ac(a2-6)Gal(b1-4)GlcNAc(b1-2)Man(a1-6)]Man(b1-4)GlcNAc(b1-4)[Fuc(a1-6)]GlcNAc
# Method in brief: as §1
# [21] = target: Neu5Ac(a2-6)Gal(b1-4)GlcNAc(b1-2)Man(a1-6)Man(b1-4)GlcNAc(b1-4)GlcNAc
# Method in brief: as §1
# [22] = target: Neu5Ac(a2-6)Gal(b1-4)GlcNAc(b1-2)Man(a1-6)[Gal(b1-4)GlcNAc(b1-2)Man(a1-3)]Man(b1-4)GlcNAc(b1-4)GlcNAc
# Method in brief: as §1
# [23] = target: Neu5Ac(a2-6)Gal(b1-4)GlcNAc(b1-2)Man(a1-6)[GlcNAc(b1-2)Man(a1-3)]Man(b1-4)GlcNAc(b1-4)GlcNAc
# Method in brief: as §1
# [24] = target: Neu5Ac(a2-6)Gal(b1-4)GlcNAc(b1-2)Man(a1-6)[Man(a1-3)]Man(b1-4)GlcNAc(b1-4)GlcNAc
# Method in brief: as §1
# [25] = target: Neu5Ac(a2-6)Gal(b1-4)GlcNAc(b1-2)[Neu5Ac(a2-6)Gal(b1-4)GlcNAc(b1-4)]Man(a1-3)[GlcNAc(b1-4)][Neu5Ac(a2-6)Gal(b1-4)GlcNAc(b1-2)[Neu5Ac(a2-6)Gal(b1-4)GlcNAc(b1-6)]Man(a1-6)]Man(b1-4)GlcNAc(b1-4)GlcNAc
# Method in brief: as §1
# [26] = target: Neu5Ac(a2-6)Gal(b1-4)GlcNAc(b1-2)[Neu5Ac(a2-6)Gal(b1-4)GlcNAc(b1-4)]Man(a1-3)[GlcNAc(b1-4)][Neu5Ac(a2-6)Gal(b1-4)GlcNAc(b1-4)Man(a1-6)]Man(b1-4)GlcNAc(b1-4)GlcNAc
# Method in brief: as §1
# [27] = target: Neu5Ac(a2-6)Gal(b1-4)GlcNAc(b1-2)[Neu5Ac(a2-6)Gal(b1-4)GlcNAc(b1-6)]Man(a1-6)[Neu5Ac(a2-6)Gal(b1-4)GlcNAc(b1-2)Man(a1-3)][GlcNAc(b1-4)]Man(b1-4)GlcNAc(b1-4)GlcNAc
# Method in brief: as §1
# [28] = target: Neu5Ac(a2-6)Gal(b1-4)GlcNAc(b1-3)Gal(b1-3)GlcNAc
# Method in brief: as §1
# [29] = target: Neu5Ac(a2-6)Gal(b1-4)GlcNAc(b1-3)Gal(b1-4)GlcNAc
# Method in brief: as §1
# [30] = target: Neu5Ac(a2-6)Gal(b1-4)GlcNAc(b1-3)Gal(b1-4)GlcNAc(b1-2)Man(a1-3)[Neu5Ac(a2-6)Gal(b1-4)GlcNAc(b1-3)Gal(b1-4)GlcNAc(b1-2)Man(a1-6)]GalNAc
# Method in brief: as §1
# [31] = target: Neu5Ac(a2-6)Gal(b1-4)GlcNAc(b1-3)Gal(b1-4)GlcNAc(b1-3)Gal(b1-4)GlcNAc
# Method in brief: as §1
# [32] = target: Neu5Ac(a2-6)Gal(b1-4)GlcNAc(b1-3)Gal(b1-4)GlcNAc(b1-3)Gal(b1-4)GlcNAc(b1-2)Man(a1-3)[Neu5Ac(a2-6)Gal(b1-4)GlcNAc(b1-3)Gal(b1-4)GlcNAc(b1-3)Gal(b1-4)GlcNAc(b1-2)Man(a1-6)]GalNAc
# Method in brief: as §1
# [33] = target: Neu5Ac(a2-6)Gal(b1-4)GlcNAc(b1-3)Gal(b1-4)GlcNAc(b1-3)GalNAc
# Method in brief: as §1
# [34] = target: Neu5Ac(a2-6)Gal(b1-4)GlcNAc(b1-3)Gal(b1-4)GlcNAc(b1-3)[Neu5Ac(a2-6)Gal(b1-4)GlcNAc(b1-3)Gal(b1-4)GlcNAc(b1-6)]GalNAc
# Method in brief: as §1
# [35] = target: Neu5Ac(a2-6)Gal(b1-4)GlcNAc(b1-3)Gal(b1-4)GlcNAc(b1-6)[Gal(b1-3)]GalNAc
# Method in brief: as §1
# [36] = target: Neu5Ac(a2-6)Gal(b1-4)GlcNAc(b1-3)Gal(b1-4)[Fuc(a1-3)]GlcNAc(b1-3)Gal(b1-4)[Fuc(a1-3)]GlcNAc
# Method in brief: as §1
# [37] = target: Neu5Ac(a2-6)Gal(b1-4)GlcNAc(b1-3)GalNAc
# Method in brief: as §1
# [38] = target: Neu5Ac(a2-6)Gal(b1-4)GlcNAc(b1-3)[Neu5Ac(a2-6)Gal(b1-4)GlcNAc(b1-6)]GalNAc
# Method in brief: as §1
# [39] = target: Neu5Ac(a2-6)Gal(b1-4)GlcNAc(b1-6)GalNAc
# Method in brief: as §1
# [40] = target: Neu5Ac(a2-6)Gal(b1-4)GlcNAc(b1-6)[Gal(b1-3)GlcNAc(b1-3)]Gal(b1-4)Glc
# Method in brief: as §1
# [41] = target: Neu5Ac(a2-6)Gal(b1-4)GlcNAc(b1-6)[Gal(b1-3)]GalNAc
# Method in brief: as §1
# [42] = target: Neu5Ac(a2-6)Gal(b1-4)GlcNAc6S
# Method in brief: as §1
# [43] = target: Neu5Ac(a2-6)GalNAc
# Method in brief: as §1
# [44] = target: Neu5Ac(a2-6)GalNAc(b1-4)GlcNAc
# Method in brief: as §1
# [45] = target: Neu5Ac(a2-6)GalNAc(b1-4)GlcNAc6S
# Method in brief: as §1
binder,measurement,setting,value
B1,glycan array binding signal (z-score),[1],-0.414
same,glycan array binding signal (z-score),[2],0.523
same,glycan array binding signal (z-score),[3],-0.087
same,glycan array binding signal (z-score),[4],-0.39
same,glycan array binding signal (z-score),[5],-0.447
same,glycan array binding signal (z-score),[6],0.189
same,glycan array binding signal (z-score),[7],0.161
same,glycan array binding signal (z-score),[8],0.67
same,glycan array binding signal (z-score),[9],-0.52
same,glycan array binding signal (z-score),[10],0.243
same,glycan array binding signal (z-score),[11],-0.345
same,glycan array binding signal (z-score),[12],-0.335
same,glycan array binding signal (z-score),[13],0.174
same,glycan array binding signal (z-score),[14],-0.271
same,glycan array binding signal (z-score),[15],0.061
same,glycan array binding signal (z-score),[16],-0.287
same,glycan array binding signal (z-score),[17],0.115
same,glycan array binding signal (z-score),[18],-0.44
same,glycan array binding signal (z-score),[19],-0.461
same,glycan array binding signal (z-score),[20],-0.255
same,glycan array binding signal (z-score),[21],0.323
same,glycan array binding signal (z-score),[22],0.067
same,glycan array binding signal (z-score),[23],-0.297
same,glycan array binding signal (z-score),[24],-0.041
same,glycan array binding signal (z-score),[25],-0.075
same,glycan array binding signal (z-score),[26],-0.226
same,glycan array binding signal (z-score),[27],-0.07
same,glycan array binding signal (z-score),[28],-0.22
same,glycan array binding signal (z-score),[29],-0.153
same,glycan array binding signal (z-score),[30],0.403
same,glycan array binding signal (z-score),[31],-0.157
same,glycan array binding signal (z-score),[32],1.18
same,glycan array binding signal (z-score),[33],-0.075
same,glycan array binding signal (z-score),[34],0.817
same,glycan array binding signal (z-score),[35],0.72
same,glycan array binding signal (z-score),[36],-0.163
same,glycan array binding signal (z-score),[37],-0.316
same,glycan array binding signal (z-score),[38],0.352
same,glycan array binding signal (z-score),[39],1.16
same,glycan array binding signal (z-score),[40],-0.375
same,glycan array binding signal (z-score),[41],0.365
same,glycan array binding signal (z-score),[42],0.066
same,glycan array binding signal (z-score),[43],-0.499
same,glycan array binding signal (z-score),[44],-0.505
same,glycan array binding signal (z-score),[45],0.021

# — the supplement of paper PMC8728848
